In PubChem BioAssay AID1814 (Broad Institute, 2009):
The whole screen tested about 300,000 compounds, of which about 22,000 (7.3%) were called active. The shares of active, inactive and inconclusive entries below differ from those in the screen. Cut-off read from the data, not from the text of the source: active = activity score below about -60%; inconclusive = mostly about -28% to -61%; inactive = positive scores.

Assay: Activators via SNCA 5'UTR binding, MLPCN (AID 1814)
Details: alpha-synuclein 5'UTR reporter, activators screen; stronger effect = lower value; tested at 7.5 µM

SMILES	activity score
Cc1cc(C)c(-c2csc(NC(=O)/C=C/c3cccs3)n2)c(C)c1	inactive: 38.4%
CCc1ccc(-c2nc(CSCC(=O)N3CCN(c4ccccn4)CC3)c(C)o2)cc1	inactive: 81.6%
CSc1nc(N2CCN(c3ccccc3)CC2)cc(N2CCN(c3ccccc3)CC2)n1	inconclusive: -54.7%
Oc1ccc2ccccc2c1N=Nc1nccs1	inactive: 87.4%
Cc1cccc(-c2cnn(-c3ccccc3)c2N)c1	active: -129%
COCCCNc1nnc(Cc2ccc(Cl)cc2)c(=O)[nH]1	inactive: 66.5%
CCOc1ccc(N=Nc2c(N)[nH][nH]c2=O)cc1	inconclusive: -55.2%
COc1cc2c(c(OC)c1OC)-c1ccc(OC)c(=O)cc1[C@@H](N(C)CC#CCO)CC2	inactive: 87.2%
Cn1cccc1CC(=O)N/N=C/C(Cl)=C/c1ccccc1	inconclusive: -58.1%
CCCNC(=O)CCn1nc(-c2ccc(Cl)cc2)c2ccccc2c1=O	inactive: 82.1%
CC12CCC(C(=O)N(NC(=O)c3ccccc3O)C1=O)C2(C)C (stereo unspecified)	inactive: 67.6%
CCOC(=O)CN1C=C(c2ccc3ccccc3n2)C(C[N+](=O)[O-])c2ccccc21 (stereo unspecified)	inconclusive: -56%
COc1ccc(OC)c2sc(NC(=O)C3=COCCO3)nc12	inconclusive: -47.1%
COC(=O)c1c(NC(=O)COc2ccc(Cl)cc2)sc2c1CC(C)(C)NC2(C)C	inactive: 82.9%
O=C(NCCc1ccco1)C(=O)NCC1CCCN1S(=O)(=O)c1ccccc1 (stereo unspecified)	inconclusive: -59.5%
O=C(O)c1cccnc1SCCc1ccccc1	inconclusive: -59.7%
O=C(CCS(=O)(=O)c1cccs1)NC1CCCCCC1	active: -139%
Nc1nc(N)c2[nH]c(-c3ccccc3)nc2n1	inconclusive: -49%
CCOC(=O)c1sc(NCc2ccco2)c(-c2nc3ccccc3s2)c1N	inconclusive: -53.5%
Brc1ccc(-c2csc(/N=C/N3CCOCC3)n2)cc1	active: -90%
CC1CN(S(=O)(=O)c2ccc(C(=O)Nc3nnc(-c4ccc5c(c4)CCCC5)o3)cc2)CC(C)O1 (stereo unspecified)	inactive: 75.6%
CN(C)c1ccc(/C=C/c2nc3ccccc3s2)cc1	inactive: 81.1%
O=C(NC1=NCCS1)c1sc2cc(F)ccc2c1Cl	active: -191%
O=C(Cc1cccs1)Nc1cccc(-c2nc3ccccc3o2)c1	inconclusive: -41.7%

SMILES	activity score
O=C(O)c1ccc(N/N=C/c2ccnc3ccccc23)cc1	active: -119%
C[n+]1ccccc1/C=C/c1ccc2ncccc2c1	inconclusive: -52.5%
O=C(O)c1cc(N/N=C/c2cccs2)ccc1Cl	active: -253%
CCn1c(SCc2ccc(C(=O)Nc3nccs3)cc2)nnc1-c1ccc(NC(C)=O)cc1	inconclusive: -52.6%
CCCN1CCN(C(=O)c2cc3c(s2)-c2ccccc2OC3)CC1	inconclusive: -59.4%
COC(=O)CCc1c(C)nn(-c2ccccc2)c1C	inconclusive: -53.5%
CC(=O)c1c(C)[nH]c(C(=O)N2CCN(c3cc(Cl)ccc3C)CC2)c1C	inactive: 57.2%
CCOC(=O)/C(C#N)=C/c1c[nH]c2ccccc12	active: -66.2%
CC(C)C(=O)NN(C(=O)C(C)C)c1nc2ccccc2s1	inconclusive: -48.4%
C/C(=N\NC(=O)c1cc(O)ccc1O)c1cccc(NC(=O)c2ccc(Cl)cc2)c1	active: -98.5%
Cc1cc(/C=C(\C#N)C(=O)Nc2ccccc2)c(C)n1-c1ccc2c(c1)OCO2	inconclusive: -58.3%
O=C(NC1=NN(c2ccccc2)CC1)Nc1ccccc1F	inconclusive: -33.9%
c1ccc(C2CCCN(Cc3nc(CC4CC4)no3)CC2)cc1 (stereo unspecified)	inconclusive: -54.5%
c1ccc(COc2ccc(OCCCN3CCCC3)cc2)cc1	inactive: 54.8%
COC(=O)c1sc(NC(=O)/C=C/c2ccc(C)cc2)nc1C	active: -71.4%
O=C(N=C1c2ccccc2CN1c1cccc(Cl)c1)c1cccnc1	inconclusive: -61.5%
Cc1ccc(N=Cc2nc(-c3ccco3)oc2O)cc1	active: -68.9%
O=C(NCCC1CCCCN1S(=O)(=O)c1ccc(Cl)cc1)C(=O)NCc1ccncc1 (stereo unspecified)	inactive: 61.8%
NC(=S)N=Nc1c(O)n(Cc2ccc(Br)cc2)c2ccccc12	inactive: 64.4%
COc1ccc(C2C=C(C)Nc3nc4ccccc4n32)cc1 (stereo unspecified)	inconclusive: -40.3%
Cc1ccc(NC(=O)c2cncc(Br)c2)cc1S(=O)(=O)N(C)C	active: -127%
Cc1ccc2nc(-c3cc(N)cc(N)c3)oc2c1	inactive: 62.5%
CCOc1cccc(/C=N/Nc2ccc(S(=O)(=O)N(CC)CC)cn2)c1O	inactive: 88.2%
CCc1nnc(NC(=O)c2ccc(S(C)(=O)=O)cc2)s1	inconclusive: -52.7%

SMILES	activity score
CCCOc1ccc(C(=O)C(CCC(CNCC)C(=O)c2ccc(OCCC)cc2)CNCC)cc1 (stereo unspecified)	inactive: 107%
CC(C)(C)Nc1nc(N2CCCC2)nc(N2CCCC2)n1	inactive: 68.4%
Cc1ccc(OCc2cc(C(=O)NCCc3cccnc3)no2)cc1C	inconclusive: -60.4%
CCCCOC(=O)c1cc(-c2ccc(/C=N/n3cnnc3)o2)ccc1Cl	active: -74.2%
Cc1ccc(-c2nn(-c3ccccc3)cc2CSC(=N)N)cc1	inactive: 119%
CCOc1nc(C)ccc1-c1noc(-c2ccncc2)n1	inconclusive: -51.3%
COCC(=O)Nc1nc2ccccc2s1	inconclusive: -52.8%
COc1ccc(Cl)cc1-c1nc(-c2ccncc2)no1	inconclusive: -51.1%
Cc1cc2cc3c(cc2nc1SCc1ccccn1)OCCO3	inconclusive: -53.9%
O=C(O)CC(NC(=O)C12CC3CC(CC(C3)C1)C2)c1ccc(OC2CCCC2)cc1 (stereo unspecified)	inconclusive: -28.2%
CCn1c(O)c(C=Nc2ccccc2)n(-c2ccccc2)c1=S	inconclusive: -54.1%
Fc1ccc(Oc2cnns2)cc1	inconclusive: -32.4%
Cc1ccc(NC(=O)c2cc(-c3ccc(F)cc3)on2)cc1C	inconclusive: -49.4%
COc1ccc(C2CC(c3cccs3)=NN2S(C)(=O)=O)cc1 (stereo unspecified)	active: -84.7%
Cc1ccc2occ(C3NC(C(=O)O)CS3)c(=O)c2c1 (stereo unspecified)	inconclusive: -46.1%
CC(=O)c1ccc(OCc2cc(C(=O)NC(C)c3cnn(C)c3)no2)cc1 (stereo unspecified)	active: -86.7%
CCOc1ccc(-c2noc(CCC(=O)O)n2)cc1	inactive: 60.5%
CCCSc1nnc(NC(=O)Nc2ccc(F)cc2)s1	inconclusive: -58%
O=C(CS(=O)(=O)Cc1ccccc1)N1CCc2ccccc21	inconclusive: -59.2%
CC(=O)c1cccc(NC(=O)c2cc3ccccn3n2)c1	inconclusive: -59.4%
O=C(c1noc2c1CCc1ccccc1-2)N1CCCc2ccccc21	inconclusive: -51.4%
COc1c(Cl)cc(C(=O)NN)cc1Cl	inactive: 98.7%
COc1cccc(-c2nc(-c3ccc(NC(=O)c4ccncc4)cc3)no2)c1	inconclusive: -37.1%
Cc1sc(NC(=O)CCCC(=O)O)c(C(N)=O)c1-c1ccccc1	inactive: 51.8%

SMILES	activity score
CC(C)(C)c1cc[n+](C2=C([O-])c3ccccc3C(=O)/C2=N\S(=O)(=O)c2cccs2)cc1	inactive: 68.7%
Cc1ccc(OCCCC(=O)Nc2nc3ccccc3[nH]2)cc1	inconclusive: -54.8%
O=C(N/N=C/c1ccccc1Cl)c1[nH]c2ccc(Br)cc2c1-c1ccccc1	inactive: 70.8%
O=C(Nc1nc2ccc([N+](=O)[O-])cc2s1)c1c(F)cccc1F	inconclusive: -47.3%
Cc1cc(NC(c2ccc(Cl)cc2)c2ccc3cccnc3c2O)no1 (stereo unspecified)	inactive: 84.9%
CCc1ccc(CCC(=O)Nc2ccc(C)c(C)c2)o1	inconclusive: -51.3%
c1ccc(-c2cn3nc(-c4ccccc4)sc3n2)cc1	inactive: 101%
O=[N+]([O-])c1nn(-c2ccccc2)n(O)c1=NCCc1ccccc1	inconclusive: -50%
c1ccc(-c2cccc(-c3ccccn3)n2)nc1	inactive: 76.6%
CCOC(=O)c1sc(N)c(C(=O)OC)c1C	inconclusive: -58.9%
CC(=O)Nc1cccc(C(=O)/C=C/c2ccc[nH]2)c1	active: -90%
O=C(O)Cc1ccc(NC(=O)Nc2ccc(Br)cc2)cc1	inconclusive: -53.5%
Cn1c(=O)c2[nH]c(-c3ccccc3Cl)c(O)c2n(C)c1=O	inconclusive: -45.2%
O=C(CC(Nc1ccccc1Cl)C(=O)O)c1ccccc1 (stereo unspecified)	active: -93.7%
COc1ccnc(N=CNOCc2cccc(Cl)c2Cl)c1C#N	inconclusive: -60.7%
O=c1cc(-c2ccccc2)[nH]n1-c1ccc([N+](=O)[O-])cc1	inconclusive: -58.8%
Cc1ccccc1-c1n[nH]c(=S)n1/N=C/c1ccc(-c2ccccc2Br)o1	inactive: 57.9%
c1coc(-c2nc(-c3ccncc3)no2)c1	active: -122%
Cc1cccc(C)c1NC(=O)c1c[nH]c2ccccc12	active: -120%
N#Cc1nc(-c2ccc(F)cc2)oc1N1CCCC1	inconclusive: -37.7%
CCOC(=O)N1CCN(C(=O)CNC(=O)c2nn(-c3ccc(OC)c(Cl)c3)c(=O)c3ccccc23)CC1	inconclusive: -43.5%
CN1/C(=C\C(=S)Nc2ccccc2)C(C)(C)c2ccccc21	inconclusive: -53.2%
Oc1ccc(-c2csc(Nc3ccccn3)n2)cc1	active: -163%
COc1ccc2nc(C)cc(SCC(=O)N/N=C/c3ccc(O)cc3O)c2c1	inactive: 79.8%
